Patent US20230265148A1 (HAINAN SIMCERE PHARMACEUTICAL, published 2023)

T1: human IL-2 receptor βγ dimer on CHO-K1 cells (CHO-K1 hIL-2R βγ 2E6) (human, UniProt P14784 27-551; P31785 23-369)
T1 construct: Full-length entries with signal peptides were cloned and expressed on CHO-K1 cells; also called CHO-K1 IL2R βγ
T1 sequence 1: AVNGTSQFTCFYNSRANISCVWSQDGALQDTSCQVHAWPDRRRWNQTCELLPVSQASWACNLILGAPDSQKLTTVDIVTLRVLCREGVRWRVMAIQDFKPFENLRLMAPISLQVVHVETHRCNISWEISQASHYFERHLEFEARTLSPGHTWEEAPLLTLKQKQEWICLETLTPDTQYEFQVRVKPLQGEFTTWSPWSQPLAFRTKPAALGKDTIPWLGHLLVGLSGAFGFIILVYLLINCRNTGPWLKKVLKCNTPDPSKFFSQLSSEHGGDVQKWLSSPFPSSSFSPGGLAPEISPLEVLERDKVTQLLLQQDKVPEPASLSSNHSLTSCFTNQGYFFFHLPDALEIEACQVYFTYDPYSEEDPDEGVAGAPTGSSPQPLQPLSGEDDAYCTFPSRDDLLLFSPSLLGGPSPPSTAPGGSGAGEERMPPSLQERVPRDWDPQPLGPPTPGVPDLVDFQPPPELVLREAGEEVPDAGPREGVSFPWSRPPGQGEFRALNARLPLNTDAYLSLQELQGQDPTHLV
T1 sequence 2: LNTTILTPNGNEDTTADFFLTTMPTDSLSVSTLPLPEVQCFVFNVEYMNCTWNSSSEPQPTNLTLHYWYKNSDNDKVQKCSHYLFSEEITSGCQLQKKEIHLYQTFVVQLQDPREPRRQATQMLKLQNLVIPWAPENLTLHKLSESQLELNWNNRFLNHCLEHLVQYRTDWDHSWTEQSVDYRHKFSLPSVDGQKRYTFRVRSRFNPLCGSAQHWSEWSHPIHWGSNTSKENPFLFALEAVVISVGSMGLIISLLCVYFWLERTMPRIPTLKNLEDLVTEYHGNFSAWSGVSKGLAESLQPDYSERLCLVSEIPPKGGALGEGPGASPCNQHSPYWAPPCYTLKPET

T2: human IL-2 receptor αβγ trimer on CHO-K1 cells (CHO-K1 hIL-2R αβγ 2D6) (human, UniProt P01589 22-272; P14784 27-551; P31785 23-369)
T2 construct: Full-length entries with signal peptides were cloned and expressed on CHO-K1 cells; also called CHO-K1 IL2R αβγ
T2 sequence 1: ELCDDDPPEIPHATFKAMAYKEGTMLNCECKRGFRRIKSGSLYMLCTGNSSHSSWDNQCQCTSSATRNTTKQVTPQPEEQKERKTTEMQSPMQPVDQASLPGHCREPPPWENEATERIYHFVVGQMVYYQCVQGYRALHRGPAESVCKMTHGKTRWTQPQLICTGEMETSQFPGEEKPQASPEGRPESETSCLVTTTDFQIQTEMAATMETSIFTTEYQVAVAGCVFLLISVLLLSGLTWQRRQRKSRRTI
T2 sequence 2: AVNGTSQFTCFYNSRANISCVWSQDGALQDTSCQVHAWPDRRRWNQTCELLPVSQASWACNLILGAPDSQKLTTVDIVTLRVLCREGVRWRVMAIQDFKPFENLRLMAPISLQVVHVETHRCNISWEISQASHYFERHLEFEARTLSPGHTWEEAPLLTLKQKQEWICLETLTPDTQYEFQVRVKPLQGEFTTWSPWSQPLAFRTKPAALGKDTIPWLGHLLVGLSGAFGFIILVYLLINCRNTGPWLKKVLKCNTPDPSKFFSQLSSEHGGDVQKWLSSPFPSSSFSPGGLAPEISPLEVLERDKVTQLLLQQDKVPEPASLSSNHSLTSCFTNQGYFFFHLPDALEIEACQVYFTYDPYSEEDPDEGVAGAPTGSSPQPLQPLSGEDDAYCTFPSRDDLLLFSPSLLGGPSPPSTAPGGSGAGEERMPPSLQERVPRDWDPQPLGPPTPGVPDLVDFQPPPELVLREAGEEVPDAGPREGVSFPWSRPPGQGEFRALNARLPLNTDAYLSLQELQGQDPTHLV
T2 sequence 3: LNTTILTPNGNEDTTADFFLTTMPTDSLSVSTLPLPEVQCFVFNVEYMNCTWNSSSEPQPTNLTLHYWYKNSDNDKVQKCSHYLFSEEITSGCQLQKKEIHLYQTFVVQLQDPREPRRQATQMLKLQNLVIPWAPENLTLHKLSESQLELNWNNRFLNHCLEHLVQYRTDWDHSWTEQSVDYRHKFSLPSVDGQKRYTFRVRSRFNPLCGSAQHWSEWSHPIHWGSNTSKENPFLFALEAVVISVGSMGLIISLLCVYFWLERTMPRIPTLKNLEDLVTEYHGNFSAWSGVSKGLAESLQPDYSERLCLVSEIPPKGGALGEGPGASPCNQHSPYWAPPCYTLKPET


Tests used:
[1] = biological target: T1, human IL-2 receptor βγ dimer on CHO-K1 …; assay: FACS on CHO-K1 hIL-2R βγ 2E6 cells
Protocol: (§1) The medium was removed, followed by washing of the flask once with PBS buffer (purchased from Hyclone, Cat NO. SH30256.01). […] The cells were added into a U-shaped bottom 96-well FACS reaction plate at 70 μL per well and placed at 4° C. or on ice for later use. […] The plate was then washed twice with FACS buffer (PBS buffer containing 2% (w/w) bovine serum albumin). Fluorescence-labeled secondary antibody (purchased from Biolegend, Cat NO. 409306) was added into the plate at 100 μL per well and incubated on ice for 30 minutes. The plate was then washed twice with FACS buffer. Detection and analysis were performed by FACS (FACS Canto II, purchased from BD Company). Alternatively, the cells were suspended with 100 μL FACS buffer containing 2% (w/w) paraformaldehyde (purchased from DingGuo, Cat NO. AR-0211) and then stored at 4° C. until further FACS detection. 100 μL PBS buffer was added to each well before FACS detection. Detection and analysis was performed by FACS. The results are shown in FIG. 5A-FIG. 5D and Table 12-Table 13. […] The binding activity of IL-2 mutants to human IL-2 receptor βγ dimer on the cell surface was weaker than that of wild type IL-2. […] The MFI in the following tables is the average fluorescence intensity value of the detected cell populations.

[2] = biological target: T2, human IL-2 receptor αβγ trimer on …; assay: FACS on CHO-K1 hIL-2R αβγ 2D6 cells
Protocol: as §1

[3] = biological target: human IL-2 receptor βγ dimer on CHO-K1 cells (CHO-K1 hIL-2R βγ 2E6) (human) (UniProt P14784); assay: FACS on CHO-K1 hIL-2R βγ 2E6 cells

| Binder | MFI at 0.054 nM [1] | MFI at 0.161 nM [1] | MFI at 0.484 nM [1] | MFI at 1.452 nM [1] | MFI at 4.357 nM [1] | MFI at 13.072 nM [1] | MFI at 39.216 nM [1] | MFI at 117.65 nM [1] | MFI at 0.0003 nM [2] | MFI at 0.0015 nM [2] | MFI at 0.0075 nM [2] | MFI at 0.0376 nM [2] | MFI at 0.1882 nM [2] | MFI at 0.9412 nM [2] | MFI at 4.7059 nM [2] | MFI at 23.529 nM [2] | further results |
| --- | --- | --- | --- | --- | --- | --- | --- | --- | --- | --- | --- | --- | --- | --- | --- | --- | --- |
| mut61-linker2-hFc (H16E/V91R) (Fc fusion, Whole fusion protein) APTSSSTKKTQLQLEELLLDLQMILNGINNYKNPKLTRMLTFKFYMPKKATELKHLQCLEEELKPLEEVLNLAQSKNFHLRPRDLISNINRIVLELKGSETTFMCEYADETATIVEFLNRWITFAQSIISTLTGGGGSGGGGSGGGGS[here human IgG1 Fc with changes without letters] | 142 MFI | 148 MFI | 146 MFI | 145 MFI | 142 MFI | 142 MFI | 155 MFI | 169 MFI | 194 MFI | 224 MFI | 544 MFI | 2310 MFI | 9190 MFI | 16400 MFI | 18300 MFI | 23900 MFI | – |
| mut7.36-linker2-hFc (H16E/R120F) (Fc fusion, Whole fusion protein) APTSSSTKKTQLQLEELLLDLQMILNGINNYKNPKLTRMLTFKFYMPKKATELKHLQCLEEELKPLEEVLNLAQSKNFHLRPRDLISNINVIVLELKGSETTFMCEYADETATIVEFLNFWITFAQSIISTLTGGGGSGGGGSGGGGS[here human IgG1 Fc with changes without letters] | 153 MFI | 156 MFI | 165 MFI | 210 MFI | 250 MFI | 318 MFI | 438 MFI | 615 MFI | 171 MFI | 272 MFI | 570 MFI | 2420 MFI | 9610 MFI | 18100 MFI | 19600 MFI | 23900 MFI | – |
| mut11.08-linker2-hFc (V91R/Y31V/A73L/H79Q) (Fc fusion, Whole fusion protein) APTSSSTKKTQLQLEHLLLDLQMILNGINNVKNPKLTRMLTFKFYMPKKATELKHLQCLEEELKPLEEVLNLLQSKNFQLRPRDLISNINRIVLELKGSETTFMCEYADETATIVEFLNRWITFAQSIISTLTGGGGSGGGGSGGGGS[here human IgG1 Fc with changes without letters] | 144 MFI | 160 MFI | 178 MFI | 232 MFI | 342 MFI | 447 MFI | 645 MFI | 854 MFI | 251 MFI | 268 MFI | 621 MFI | 2740 MFI | 8710 MFI | 14900 MFI | 17400 MFI | 22200 MFI | – |
| mut7.66-linker2-hFc (H16E/P82L/R120F) (Fc fusion, Whole fusion protein) APTSSSTKKTQLQLEELLLDLQMILNGINNYKNPKLTRMLTFKFYMPKKATELKHLQCLEEELKPLEEVLNLAQSKNFHLRLRDLISNINVIVLELKGSETTFMCEYADETATIVEFLNFWITFAQSIISTLTGGGGSGGGGSGGGGS[here human IgG1 Fc with changes without letters] | 118 MFI | 124 MFI | 136 MFI | 157 MFI | 216 MFI | 357 MFI | 597 MFI | 905 MFI | 177 MFI | 227 MFI | 568 MFI | 2480 MFI | 7680 MFI | 9660 MFI | 11600 MFI | 15500 MFI | – |

Further lines, with some results ahead:

| MFI at 0.054 nM [1] | MFI at 0.161 nM [1] | MFI at 0.484 nM [1] | MFI at 1.452 nM [1] | MFI at 4.357 nM [1] | MFI at 13.072 nM [1] | MFI at 39.216 nM [1] | MFI at 117.65 nM [1] | MFI at 0.0003 nM [2] | MFI at 0.0015 nM [2] | MFI at 0.0075 nM [2] | MFI at 0.0376 nM [2] | MFI at 0.1882 nM [2] | MFI at 0.9412 nM [2] | MFI at 4.7059 nM [2] | MFI at 23.529 nM [2] | Binder | further results |
| --- | --- | --- | --- | --- | --- | --- | --- | --- | --- | --- | --- | --- | --- | --- | --- | --- | --- |
| – | – | – | – | – | – | – | – | 190 MFI | 303 MFI | 575 MFI | 2130 MFI | 9560 MFI | 19000 MFI | 19700 MFI | 22600 MFI | mut61.08-linker2-hFc (H16E/V91R/Y31V/A73L/H79Q) (Fc fusion, Whole fusion protein) APTSSSTKKTQLQLEELLLDLQMILNGINNVKNPKLTRMLTFKFYMPKKATELKHLQCLEEELKPLEEVLNLLQSKNFQLRPRDLISNINRIVLELKGSETTFMCEYADETATIVEFLNRWITFAQSIISTLTGGGGSGGGGSGGGGS[here human IgG1 Fc with changes without letters] | MFI at 0.054 nM [3]: 141 MFI; MFI at 0.161 nM [3]: 146 MFI; MFI at 0.484 nM [3]: 144 MFI; MFI at 1.452 nM [3]: 157 MFI; MFI at 4.357 nM [3]: 144 MFI; MFI at 13.072 nM [3]: 144 MFI; MFI at 39.216 nM [3]: 163 MFI; MFI at 117.65 nM [3]: 164 MFI |
| 134 MFI | 136 MFI | 133 MFI | 134 MFI | 131 MFI | 132 MFI | 159 MFI | 148 MFI | 186 MFI | 280 MFI | 521 MFI | 2380 MFI | 10100 MFI | 19400 MFI | 19700 MFI | 24200 MFI | mut61.46-linker2-hFc (H16E/V91R/L18I/I89L/V93I) (Fc fusion, Whole fusion protein) APTSSSTKKTQLQLEELILDLQMILNGINNYKNPKLTRMLTFKFYMPKKATELKHLQCLEEELKPLEEVLNLAQSKNFHLRPRDLISNLNRIILELKGSETTFMCEYADETATIVEFLNRWITFAQSIISTLTGGGGSGGGGSGGGGS[here human IgG1 Fc with changes without letters] | – |
| 115 MFI | 121 MFI | 134 MFI | 180 MFI | 285 MFI | 560 MFI | 950 MFI | 1320 MFI | 172 MFI | 214 MFI | 553 MFI | 2180 MFI | 7520 MFI | 9500 MFI | 10900 MFI | 13400 MFI | mut11.31-linker2-hFc (V91R/Q13L) (Fc fusion, Whole fusion protein) APTSSSTKKTQLLLEHLLLDLQMILNGINNYKNPKLTRMLTFKFYMPKKATELKHLQCLEEELKPLEEVLNLAQSKNFHLRPRDLISNINRIVLELKGSETTFMCEYADETATIVEFLNRWITFAQSIISTLTGGGGSGGGGSGGGGS[here human IgG1 Fc with changes without letters] | – |
